For 84 molecules, activation results are on record in PubChem BioAssay AID1346428 (National Center for Advancing Translational Sciences (NCATS), 2018).

Molecules are shown by their SMILES. “And” between values parts separate entries of the source, which are not always exact repeats. Identical values can stand only once. Out of some 48,000 compounds screened, about 1,200 (2.5%) were called active. Inconclusive results (about 2%) are left out.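 How the source made its calls: active means activation of at least 60% and not above a set upper limit (about 1 call in 100 departs from these limits); inconclusive means activation of 40% to 60%, or above that upper limit; inactive means activation under 40%.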 The list shows a part of the results.

Chain of UniProt O75388 (O75388 whole entry, looked up): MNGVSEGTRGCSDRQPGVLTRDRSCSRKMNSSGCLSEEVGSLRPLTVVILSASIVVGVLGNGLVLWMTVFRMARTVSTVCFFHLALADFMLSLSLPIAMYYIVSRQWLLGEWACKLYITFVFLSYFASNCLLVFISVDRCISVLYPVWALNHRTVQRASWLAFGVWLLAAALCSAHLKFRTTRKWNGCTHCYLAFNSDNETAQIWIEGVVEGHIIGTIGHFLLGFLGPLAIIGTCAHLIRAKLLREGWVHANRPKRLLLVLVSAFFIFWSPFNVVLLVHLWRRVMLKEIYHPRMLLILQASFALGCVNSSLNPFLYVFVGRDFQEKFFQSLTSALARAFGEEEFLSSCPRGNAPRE

The experiment has as its target Probable G-protein coupled receptor 32 (Homo sapiens) (UniProt O75388). Nature of the experiment: qHTS for Agonists of Human Resolvin D1 Receptor DRV1. Further: 0% is about no effect. The following applies: CHO-K1 GPR32 beta-arrestin PathHunter luminescence, 90 min; at 76.9 µM; active compounds read high; zero percent set by DMSO-only wells. Put shortly:
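Engineered CHO-K1 line co-expressing GPR32-ProLink and EA-beta-arrestin. Compound treatment lasted 90 min at 37 °C. Luminescence was recorded after 1 h with substrate at ambient temperature, relative to DMSO basal wells.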
A general note: In qHTS, concentration-response curves come from the screen itself.
`CCc1ccc(CNC(=O)C2Cc3cc(S(=O)(=O)N4CCCCCC4)ccc3N2C(C)=O)cc1` (centres undefined): the activation was inactive: 8.73%.
As to `COc1ccc2c(c1)CC(C(=O)Nc1cc(Cl)ccc1C)CO2` (centres undefined), the activation was inactive: -14.4%.
Turning to `CCOc1ccc(CNc2nc3nc(C)c(Cc4ccccc4)c(=O)n3[nH]2)cc1`, the activation was inactive: 8.81%.
In the case of `CCCc1nn2c(=O)cc(COC(=O)c3ccccc3NC(=O)c3cccs3)nc2s1` it was inactive: -3%; in that of `COC(=O)[C@@H]1[C@H]2C[C@H]3c4[nH]c5ccccc5c4CCN3C[C@@H]2CC[C@@H]1O`, inactive: -14.3% and inactive: -11.7%.
The same measure for `COc1cc(C2c3c(oc4ccccc4c3=O)C(=O)N2c2ccccn2)cc(OC)c1OC` (centres undefined): inactive: -14.8%; for `Cc1ccc(OCC(=O)Nc2ccc(Cl)c(-c3nc4ncccc4o3)c2)c(C)c1`: inactive: -1.77%.
In the case of `COc1cccc(C2CC(=O)N(c3ccc(F)cc3)C3=C2C(=O)OC3)c1OC` (centres undefined), the activation was inactive: 2.5%.
The same measure for `Cc1cccc(NC(=O)C2CCC(CNS(=O)(=O)c3ccc(Br)s3)CC2)c1` (centres undefined): inactive: -5.11%; for `Cc1ccc(C)c(C(=O)c2c(N)c(-c3nc(-c4ccc5c(c4)OCO5)cs3)c3ccccn23)c1`: inactive: 22.3%.
In the case of `COc1ccc(C(=O)Nc2ccc(-n3nncc3-c3ccccc3)cc2)cc1OC`, the activation is inactive: -15.2%.
In the case of `Cc1cccc(N2CCN(C(=O)Cn3ncc4c5ccccc5n(C)c4c3=O)CC2)c1C`, the activation is inactive: 3.75%.
In the case of `Cc1cc2oc(=O)cc(C)c2c2occ(-c3ccc(Cl)cc3)c12` it was inactive: -6.31%; in that of `Clc1ccc(C(c2ccccc2)c2c[nH]c3ccccc23)s1` (centres undefined), active: 107%; in that of `Cc1ccc2[nH]c3c(=O)n(CC(=O)N4CCCCC4)ncc3c2c1`, inactive: 2.77%.
In the case of `Cc1ccc(C)n1-c1nnc(N2CCCC(C(=O)NCc3cccc(F)c3)C2)s1` (centres undefined) it was inactive: -1.75%; in that of `COc1ccc(OC)c(CNC(=O)C2CCN(c3nc4ccccc4nc3C(F)(F)F)CC2)c1`, inactive: -3.49%.
Take `CCc1ccc(S(=O)(=O)c2cn(Cc3ccccc3)c3cc(F)c(F)cc3c2=O)cc1`: the activation is inactive: 3.11%.
`CCc1ccccc1Nc1nc2ccccc2c2nncn12`: the activation is inactive: -24%.
The same measure for `Cc1ccc(-n2nc(CO)c(C(=O)NCc3cccnc3)n2)cc1`: inactive: -7.93%; for `Cc1ccc(OCC(=O)Nc2ccc3nc(SCC(=O)N4CCOCC4)sc3c2)cc1`: inactive: 1.32%.
With `Cn1c(CN2CCCCC2)nc2cc(NC(=O)c3ccccc3Cl)ccc21`, the activation was inactive: -11.7%.
`CCCCNC(=O)CCCn1c(=O)c2ccccc2n(Cc2cccc(Cl)c2)c1=O`: the activation is inactive: -1.11%.
Take `CCCCc1c(C)nc2c(-c3ccc(OC)cc3)c(C)[nH]n2c1=O`: the activation was inactive: 23.2%.
For `CCC(=O)N1CCc2cc(Br)cc(S(=O)(=O)CCC(=O)N3CCN(c4ccccc4F)CC3)c21`, the activation is inactive: -8.8%.
In the case of `Cc1ccc(C(C)OC(=O)C2(C)CCC(C(=O)O)C2(C)C)cc1` (centres undefined) it was inactive: -2.2%; in that of `O=C(NC1CCCC1)c1cc(Nc2cccc(C(F)(F)F)c2)nc2ccccc12`, active: 96.3%; in that of `COc1ccc2nc(NC(=O)c3nc(SC(C)C)ncc3Cl)sc2c1`, inactive: 10.6%.
Take `NC(=O)c1nc(Nc2ccccc2)sc1NC(=O)c1ccccc1Br`: the activation was inactive: 30.5%.
Turning to `CCOC(=O)c1cccc(NS(=O)(=O)c2ccc(-c3cnc(C4CC4)o3)cc2)c1`, the activation was inactive: -4.23%.
In the case of `O=C(C1CCN(S(=O)(=O)Cc2ccccc2)CC1)N1CCN(c2ccccc2)CC1`, the activation was inactive: -7.61%.
The same measure for `Cc1ccc(S(=O)(=O)C(CNS(=O)(=O)c2ccc(F)c(C(F)(F)F)c2)c2ccco2)cc1` (centres undefined): inactive: -12.7%.
In the case of `CCC(C(=O)NC1CCCCC1)n1c(SCc2cccc(F)c2)nc2ccncc21` (centres undefined), the activation is inactive: -1.64%.
The same measure for `COc1ccccc1NC(=O)Cn1ccn(-c2cc(C)cc(C)c2)c(=O)c1=O`: inactive: -18.6%; for `CCOc1ccc(CNCc2c(C(=O)O)n(Cc3ccccc3C)c3cc(OC)ccc23)cc1OC`: inactive: -5.85%; for `CC(CNC(=O)C1CCN(C(=O)c2cc3sccc3n2C)CC1)c1ccccc1` (centres undefined): inactive: 3.15%.
The same measure for `Cc1ccc(Cl)cc1Nc1nn2c(=O)c3ccc(C(=O)NC(C)c4ccccc4)cc3nc2s1` (centres undefined): inactive: 0.577%; for `O=C(C1CCCCC1)N1CC(=O)N2CCCc3ccccc3C2C1` (centres undefined): inactive: -10.4%; for `CCOc1cccc(NC(=O)C2CC(=O)N(C)C(=Nc3ccc(OC)cc3)S2)c1` (centres undefined): inactive: 20.2%.
In the case of `Cn1nc(C(=O)NCc2ccccc2)c2c1-c1ccccc1S(=O)(=O)C2` it was inactive: -14.2%; in that of `COc1ccccc1CNC(=O)CCc1c(C)nn(-c2ccc(N3CCCCC3)nn2)c1C`, inactive: -10.4%; in that of `Cc1ccc(Cl)cc1N1CCN(C(=O)CCS(=O)(=O)c2ccc3c(c2)oc(=O)n3C)CC1`, inactive: 1.9%.
With `Cc1cccc(CN2CCN(C(c3ccccc3)c3ccc(Cl)cc3)CC2)c1` (centres undefined), the activation is inactive: 2.97%.
Turning to `CCOc1ccc(-n2c(=O)c3c(C)c(C(=O)N(C)C)sc3n(Cc3cc(C)ccc3C)c2=O)cc1`, the activation was inactive: -9.52%.
The same measure for `Cc1ccc(S(=O)(=O)C(CNC(=O)C(=O)NCc2ccc(Cl)cc2)c2ccco2)cc1` (centres undefined): inactive: -8.1%; for `CCOc1ccccc1CNC(=O)c1oc2ccc3c(c2c1C)C(=O)CC(C)(C)O3`: inactive: -17.4%; for `O=c1c2sc3ccccc3c2n(Cc2ccc(F)cc2Cl)c(=O)n1Cc1ccccc1`: inactive: -1.3%.
For `CN(C(=O)CSc1nc2ccccc2n1Cc1ccccc1C#N)c1ccccc1`, the activation was inactive: -6.2%.
Regarding `Cc1ccc2onc(CNC(=O)N3CCN(c4cccc(C(F)(F)F)c4)CC3)c2c1`, the activation is inactive: 10.5%.
Turning to `CCN(CC)S(=O)(=O)c1ccc(N2CCCCS2(=O)=O)cc1`, the activation is inactive: -4.52%.
The same measure for `CCn1cc(S(=O)(=O)c2ccc(Cl)cc2)c(=O)c2cc(F)c(N3CCOCC3)cc21`: inactive: -3.28%; for `Cc1ccc2oc(-c3ccc(C)c(NC(=O)c4ccc(-c5ccccc5[N+](=O)[O-])o4)c3)nc2c1`: inactive: -3.7%; for `CCOc1ccc(S(=O)(=O)N(CC(=O)Nc2ccc3c(c2)OCO3)c2ccc(C)cc2)cc1`: inactive: -6.62%.
With `COC(=O)c1ccc2nc(C)cc(Nc3cccc(Cl)c3C)c2c1`, the activation is inactive: -25%.
Take `CCCCCCCCCCCCCC[N+](C)(C)Cc1ccccc1`: the activation is inactive: -1.51%.
The same measure for `COCC(=O)Nc1c(C(=O)Nc2ccc(C)cc2)oc2ccccc12`: inactive: -3.61%; for `Cc1ccc(NC(c2nnc(-c3ccccc3)o2)c2ccccc2F)c(Cl)c1` (centres undefined): inactive: -8.38%.
`COc1cc(CN(C(=O)c2ccc(Cl)cc2)C2CCS(=O)(=O)C2)cc(OC)c1OC` (centres undefined): the activation was inactive: -14.9%.
The same measure for `CCOC(=O)c1ccc(-c2ccc(/C=C(\C#N)C(=O)Nc3ccc(C)cc3)o2)cc1`: inactive: 6.1%; for `O=C(O)CCC(=O)Nc1ccc(S(=O)(=O)Nc2nccs2)cc1`: inactive: -22.6%; for `COc1cc(NC(=O)C2Cc3ccccc3N2C(=O)c2ccccc2)cc(OC)c1` (centres undefined): inactive: -39.4%.
On to `Cc1ccc(-c2nc(CS(=O)CC(=O)NCCc3ccc(Cl)cc3)c(C)o2)cc1` (centres undefined), for which the activation was inactive: -9.65%.
As for `CC(CNC(=O)CCCn1c(=O)c2cccn2c2ccc(F)cc21)c1ccccc1` (centres undefined), the activation was inactive: -16.8%.
The same measure for `Cc1cccc(C(=O)NNc2ncnc3c2cnn3-c2ccc(C)c(Cl)c2)c1`: inactive: -5.01%; for `O=C1C2C=CC=CC2=NC(=S)N1CCN1CCC(=C(c2ccc(F)cc2)c2ccc(F)cc2)CC1` (centres undefined): inactive: -9.46%; for `CCOc1ccc(-n2nc(CO)c(C(=O)NCC(C)O)n2)cc1` (centres undefined): inactive: -2.7%.
In the case of `COc1ccc(OCCn2nnc3sc4c(c3c2=O)CCCC4)cc1` it was inactive: -5.86%; in that of `COC(=O)c1cc2sccc2n1CC(=O)Nc1cc(Cl)ccc1OC`, inactive: 25.7%.
Take `COc1ccc(N2CCN(c3ncnc4c3nnn4C)CC2)cc1`: the activation is inactive: -9.39%.
The same measure for `Cc1ccc(NC(=O)Cn2c(=O)n(CCCCC(=O)NCc3ccc4c(c3)OCO4)c(=O)c3ccccc32)cc1`: inactive: -10%; for `CCC(=O)N1c2ccccc2CC1C(=O)N1CCN(c2ccccc2F)CC1` (centres undefined): inactive: -18.5%.
Consider `CCOC(=O)c1c(C)[nH]c(C)c1S(=O)(=O)NCC(=O)NCc1ccccc1C`, for which the activation was inactive: 5.44%.
For `COc1cnc(NS(=O)(=O)c2ccc(N)cc2)nc1`, the activation was inactive: 3.5%.
On to `CCOc1ccccc1CNS(=O)(=O)c1cc(-c2onc(C)c2C)ccc1OC`, for which the activation was inactive: -14.8%.
In the case of `CCOC(=O)C1CCN(c2ncnc3c2c(-c2ccccc2)cn3-c2ccc(Cl)cc2)CC1` it was inactive: -15.9%.
Consider `N#Cc1c(C(F)(F)F)cc(-c2cccs2)nc1SCc1ccccc1F`, for which the activation was inactive: 13.2%.
Turning to `CCOc1ccccc1Oc1nc(C)nc2c1oc1ccccc12`, the activation is inactive: -16.3%.
As to `Clc1ccccc1CSc1nc(NCCc2ccccc2)c2ccccc2n1`, the activation is inactive: -20.2%.
For `O=C(O)CCn1c2c(c3ccccc31)C[C@H](NS(=O)(=O)c1ccc(F)cc1)CC2`, the activation is inactive: 29.1%.
In the case of `O=C(CSc1ncc2c(n1)-c1ccccc1N(Cc1ccc(Cl)cc1)S2(=O)=O)c1ccccc1` it was inactive: 0.289%.
On to `CCOc1ccccc1Nc1sc(C(=O)c2ccc(Cl)cc2)c(N)c1S(=O)(=O)c1ccccc1`, for which the activation was inactive: -13.5%.
`CCOc1ccc(NC(=O)CCc2nnc3n(C)c(=O)c4sccc4n23)cc1`: the activation is inactive: -2.95%.
With `Cc1cccc(N2CCN(C(=O)c3ccc4c(c3)N(Cc3cccc(Cl)c3)C(=O)c3ccccc3S4(=O)=O)CC2)c1C`, the activation is inactive: -22.2%.
In the case of `CCN(Cc1ccccc1)C(=O)Cn1ncc2c(=O)oc3ccc(C)cc3c21` it was inactive: -9.11%.
